{"source": "the supplement of paper PMC8728848", "binders": {"B1": {"name": "MpAFP NterminalRI GFP (Marinomonas primoryensis) (protein)", "chain": "MSDNQFPFATLGNAIGFITKLDGSVTVQSIDGQERVLKLGDPIFFGETVLTGGSGSVTIAFVDGTDVVIGGDSIVEMTDEIYNTGDNEDLVADSSSEIDALQNAILAGDDPTLIQDAPAAGNTLADQQRVDVSIERNDNSAQAGFGVDTQSSLPTYGYDTDNGNGGQATEREYSAPSLSRTLNQSPLLEHHHHHH"}}, "assay_in_all_cases": "glycan array binding signal (z-score within array); higher = stronger binding", "details_in_all_cases": "glycan notation: IUPAC condensed, linker removed", "key": {"[1]": {"biological_target": "Gal(b1-4)GlcNAc(b1-3)Gal(b1-4)GlcNAc(b1-3)Gal(b1-4)GlcNAc(b1-3)Gal(b1-4)GlcNAc(b1-2)Man(a1-3)[Gal(b1-4)GlcNAc(b1-3)Gal(b1-4)GlcNAc(b1-3)Gal(b1-4)GlcNAc(b1-3)Gal(b1-4)GlcNAc(b1-2)Man(a1-6)]Man(b1-4)GlcNAc(b1-4)GlcNAc", "outline": "(§1)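 The binding signal is a Z-score computed within each array and averaged over linkers. Arrays of the same protein sequence at different concentrations or buffers were also averaged together. Data originate from 3228 arrays in the Consortium for Functional Glycomics database, kept only where the protein sequence was available.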"}, "[2]": {"biological_target": "Gal(b1-4)GlcNAc(b1-3)Gal(b1-4)GlcNAc(b1-3)Gal(b1-4)GlcNAc(b1-3)Gal(b1-4)GlcNAc(b1-2)Man(a1-3)[Gal(b1-4)GlcNAc(b1-3)Gal(b1-4)GlcNAc(b1-3)Gal(b1-4)GlcNAc(b1-3)Gal(b1-4)GlcNAc(b1-2)Man(a1-6)]Man(b1-4)GlcNAc(b1-4)[Fuc(a1-6)]GlcNAc", "outline": "as §1"}, "[3]": {"biological_target": "Gal(b1-4)GlcNAc(b1-3)Gal(b1-4)GlcNAc(b1-3)Gal(b1-4)GlcNAc(b1-3)Gal(b1-4)GlcNAc(b1-2)[Gal(b1-4)GlcNAc(b1-3)Gal(b1-4)GlcNAc(b1-3)Gal(b1-4)GlcNAc(b1-3)Gal(b1-4)GlcNAc(b1-6)]Man(a1-6)[Gal(b1-4)GlcNAc(b1-3)Gal(b1-4)GlcNAc(b1-3)Gal(b1-4)GlcNAc(b1-3)Gal(b1-4)GlcNAc(b1-2)Man(a1-3)]Man(b1-4)GlcNAc(b1-4)[Fuc(a1-6)]GlcNAc", "outline": "as §1"}, "[4]": {"biological_target": "Gal(b1-4)GlcNAc(b1-3)Gal(b1-4)GlcNAc(b1-3)Gal(b1-4)GlcNAc(b1-3)Gal(b1-4)GlcNAc(b1-3)Gal(b1-4)GlcNAc(b1-2)Man(a1-3)[Gal(b1-4)GlcNAc(b1-3)Gal(b1-4)GlcNAc(b1-3)Gal(b1-4)GlcNAc(b1-3)Gal(b1-4)GlcNAc(b1-3)Gal(b1-4)GlcNAc(b1-2)Man(a1-6)]Man(b1-4)GlcNAc(b1-4)GlcNAc", "outline": "as §1"}, "[5]": {"biological_target": "Gal(b1-4)GlcNAc(b1-3)Gal(b1-4)GlcNAc(b1-3)Gal(b1-4)GlcNAc(b1-3)Gal(b1-4)GlcNAc(b1-3)Gal(b1-4)GlcNAc(b1-2)Man(a1-3)[Gal(b1-4)GlcNAc(b1-3)Gal(b1-4)GlcNAc(b1-3)Gal(b1-4)GlcNAc(b1-3)Gal(b1-4)GlcNAc(b1-3)Gal(b1-4)GlcNAc(b1-2)Man(a1-6)]Man(b1-4)GlcNAc(b1-4)[Fuc(a1-6)]GlcNAc", "outline": "as §1"}, "[6]": {"biological_target": "Gal(b1-4)GlcNAc(b1-3)Gal(b1-4)GlcNAc(b1-3)Gal(b1-4)GlcNAc(b1-3)Gal(b1-4)GlcNAc(b1-3)Gal(b1-4)GlcNAc(b1-2)[Gal(b1-4)GlcNAc(b1-3)Gal(b1-4)GlcNAc(b1-3)Gal(b1-4)GlcNAc(b1-3)Gal(b1-4)GlcNAc(b1-3)Gal(b1-4)GlcNAc(b1-6)]Man(a1-6)[Gal(b1-4)GlcNAc(b1-3)Gal(b1-4)GlcNAc(b1-3)Gal(b1-4)GlcNAc(b1-3)Gal(b1-4)GlcNAc(b1-3)Gal(b1-4)GlcNAc(b1-2)Man(a1-3)]Man(b1-4)GlcNAc(b1-4)[Fuc(a1-6)]GlcNAc", "outline": "as §1"}, "[7]": {"biological_target": "Gal(b1-4)GlcNAc(b1-3)Gal(b1-4)GlcNAc(b1-3)Gal(b1-4)GlcNAc(b1-3)Gal(b1-4)GlcNAc(b1-3)Gal(b1-4)GlcNAc(b1-3)Gal(b1-4)GlcNAc(b1-2)Man(a1-3)[Gal(b1-4)GlcNAc(b1-3)Gal(b1-4)GlcNAc(b1-3)Gal(b1-4)GlcNAc(b1-3)Gal(b1-4)GlcNAc(b1-3)Gal(b1-4)GlcNAc(b1-3)Gal(b1-4)GlcNAc(b1-2)Man(a1-6)]Man(b1-4)GlcNAc(b1-4)GlcNAc", "outline": "as §1"}, "[8]": {"biological_target": "Gal(b1-4)GlcNAc(b1-3)Gal(b1-4)GlcNAc(b1-3)GalNAc", "outline": "as §1"}, "[9]": {"biological_target": "Gal(b1-4)GlcNAc(b1-3)Gal(b1-4)GlcNAc(b1-3)[Gal(b1-4)GlcNAc(b1-3)Gal(b1-4)GlcNAc(b1-6)]GalNAc", "outline": "as §1"}, "[10]": {"biological_target": "Gal(b1-4)GlcNAc(b1-3)Gal(b1-4)GlcNAc(b1-6)[Gal(b1-3)]GalNAc", "outline": "as §1"}, "[11]": {"biological_target": "Gal(b1-4)GlcNAc(b1-3)Gal(b1-4)[Fuc(a1-3)]GlcNAc(b1-3)Gal(b1-4)[Fuc(a1-3)]GlcNAc", "outline": "as §1"}, "[12]": {"biological_target": "Gal(b1-4)GlcNAc(b1-3)GalNAc", "outline": "as §1"}, "[13]": {"biological_target": "Gal(b1-4)GlcNAc(b1-3)[Fuc(a1-3)GlcNAc(b1-6)]Gal(b1-4)Glc", "outline": "as §1"}, "[14]": {"biological_target": "Gal(b1-4)GlcNAc(b1-3)[Gal(b1-4)GlcNAc(b1-6)]Gal(b1-4)GlcNAc", "outline": "as §1"}, "[15]": {"biological_target": "Gal(b1-4)GlcNAc(b1-3)[GlcNAc(b1-6)]Gal(b1-4)GlcNAc", "outline": "as §1"}, "[16]": {"biological_target": "Gal(b1-4)GlcNAc(b1-6)Gal(b1-4)GlcNAc", "outline": "as §1"}, "[17]": {"biological_target": "Gal(b1-4)GlcNAc(b1-6)GalNAc", "outline": "as §1"}, "[18]": {"biological_target": "Gal(b1-4)GlcNAc(b1-6)[Gal(b1-3)]GalNAc", "outline": "as §1"}, "[19]": {"biological_target": "Gal(b1-4)GlcNAc(b1-6)[Gal(b1-4)GlcNAc(b1-3)]GalNAc", "outline": "as §1"}, "Gal(b1-4)GlcNAc6P": {"biological_target": "Gal(b1-4)GlcNAc6P", "outline": "as §1"}, "Gal(b1-6)Gal": {"biological_target": "Gal(b1-6)Gal", "outline": "as §1"}, "Gal3S(b1-3)GalNAc": {"biological_target": "Gal3S(b1-3)GalNAc", "outline": "as §1"}, "Gal3S(b1-3)GlcNAc": {"biological_target": "Gal3S(b1-3)GlcNAc", "outline": "as §1"}}, "note": "This is one part of the list."}
{"binder": "B1", "values": [{"measurement": "glycan array binding signal (z-score)", "setting": "[1]", "value": 0.415}, {"measurement": "glycan array binding signal (z-score)", "setting": "[2]", "value": 0.795}, {"measurement": "glycan array binding signal (z-score)", "setting": "[3]", "value": 1.1}, {"measurement": "glycan array binding signal (z-score)", "setting": "[4]", "value": 0.417}, {"measurement": "glycan array binding signal (z-score)", "setting": "[5]", "value": 0.669}, {"measurement": "glycan array binding signal (z-score)", "setting": "[6]", "value": 0.974}, {"measurement": "glycan array binding signal (z-score)", "setting": "[7]", "value": 0.381}, {"measurement": "glycan array binding signal (z-score)", "setting": "[8]", "value": -0.334}, {"measurement": "glycan array binding signal (z-score)", "setting": "[9]", "value": 0.613}, {"measurement": "glycan array binding signal (z-score)", "setting": "[10]", "value": -0.074}, {"measurement": "glycan array binding signal (z-score)", "setting": "[11]", "value": -0.517}, {"measurement": "glycan array binding signal (z-score)", "setting": "[12]", "value": 1.47}, {"measurement": "glycan array binding signal (z-score)", "setting": "[13]", "value": -0.081}, {"measurement": "glycan array binding signal (z-score)", "setting": "[14]", "value": -0.159}, {"measurement": "glycan array binding signal (z-score)", "setting": "[15]", "value": 0.914}, {"measurement": "glycan array binding signal (z-score)", "setting": "[16]", "value": 0.073}, {"measurement": "glycan array binding signal (z-score)", "setting": "[17]", "value": -0.473}, {"measurement": "glycan array binding signal (z-score)", "setting": "[18]", "value": 0.083}, {"measurement": "glycan array binding signal (z-score)", "setting": "[19]", "value": -0.033}, {"measurement": "glycan array binding signal (z-score)", "setting": "Gal(b1-4)GlcNAc6P", "value": 0.256}, {"measurement": "glycan array binding signal (z-score)", "setting": "Gal(b1-6)Gal", "value": -0.337}, {"measurement": "glycan array binding signal (z-score)", "setting": "Gal3S(b1-3)GalNAc", "value": 0.044}, {"measurement": "glycan array binding signal (z-score)", "setting": "Gal3S(b1-3)GlcNAc", "value": -0.338}]}
